These results are taken from the RNAGym collection of RNA variant scans (doi:10.1093/nar/gkz1192).

B1: CPEB3 Ribozyme (parent)
chain: UAACAGGGGGCCACAGCAGAAGCGUUCACGUCGCAGCCCCUGUCAGAUUCUGGUGAAUCUGCGAAUUCUGCUGUAUAUCUC

The source gives no read counts; variants with many changes may rest on few reads.

The data set covers variants of B1. Description: self-cleavage, relative activity (ratio to wild type); higher = more cleavage; in vitro, sequencing. The method in brief:
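Libraries of CPEB3 self-cleaving ribozyme mutants came from rounds of error-prone PCR and carried barcodes, which DNA sequencing matched to variants. In vitro transcription used T7 RNA polymerase at 37°C for 5 hours, with a further 15 min in DNase I before EDTA stopped the reaction; the ribozymes cleaved during both steps. The RNA was reverse transcribed with template switching and sequenced on Illumina. Relative activity is the cleaved/total read fraction of a variant divided by that of the unmutated ribozyme, averaged over three batches with at least 5 reads.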
For UGACUGGGGGCCACAGCAGAAGCGUUCGGGUCGCAGCCCCUGUCAGAUUCUGGUGAAUCUGCGUAUUCUGCUGUAUAUCUC, the self-cleavage amounted to 0.23.

On to UGACUGGGGGCCACAGCAGAAGCGUUCACGUCGUAGCCCCUGUCAGAUUCUGGUGAAUCAGCGAAUUCUGCUGUAUAUCUC, for which the self-cleavage was found to be 0.1. With UGACUGGGGGCCACAGCUGAAGCGUCCACGUCGCAGCCCCUGUCAAAUUCUGGUGAAUCUGCGAAUUCUGCUGUUUAUCUC the figure was 0.24; with UGACAGGGGGCCACCGCAGAAGCGUUCACGCCGCAGCCCCCGUCUGAUUCUGGUGAAUCUGCGAACUCUGCUGUAUAUCUC, 0.4; with UGACGGGGGGCCACAGCAGAGGCGUUCACGUCGCAGCCCCUGUCAGAUUCUGGUGAAUCUGCGAAUUCUGCUGUAUAUCUC, 0.09. As for UGACUGGGGGCCACAGCUGAAGCGUUCACGUCGCAGCCCCUGUCAGAUUCUGGUGAGUCUGCCUAUUCUGCUGUAUAUCUC, the self-cleavage came out at 0.19. On to UGUCAGGGGGCCACAGCAGAAGCGUUCCCGUCGCAGCCCCUGUCAGAUUCUGGUGAAUCUGCGAAUUCUGCUGUAUAUCUC, for which the self-cleavage was 0.45.

As for UGACGGGGGGCCACAGCAGAAGCGUACACGUCGCAACCCCUGUCAGACUCUGGUGCAUCUGCGAAUUCUGCGGUAUAUCUC, the self-cleavage was 0.08. As to UGACGGGGGGCCACAGCAGAAGUGUUCACGUCGCAGCCCCUGUCAGAUCCUGGUGAAUCUGCGAAUUCUGCUGUAUAUCUC, the self-cleavage came out at 0.52. For the variant UGACGGGAGACCACAGCAGAAGCGUUCACGUCGCAGCCCCUGUCAGAUUCUGGUGAAUCUGCGGAUUCUGCUGUAUUUCUC, the self-cleavage turned out to be 0.09. For UGACGGGGGGCCACAGCAGAAGCGUUCACGUCGCAGCCCCUGUCAGAUUCUGGUGAAUCUGCGGAUUCUGCUGAAUAUCUC, the self-cleavage stood at 1.16. For the variant UGACGGGGGGCCGCCGCAGAAGCGCUCACGUCGCAGCCCCUGUCAGAUUCUGGUGAAUCUGCGAAUUCUGCUGUAUAUCUC, the self-cleavage came to 0.38. For UGACAGGGGGCCUCAGCAGAAGCGUUCACGUCGCAGCCCCUGUCAGAUUCUGGUGAAUCCGCGAAUUCUGCUGUAUAUCUC, the self-cleavage was 0.1. For UGUCAGAGGGCCUCCGCAGAAGCGUUCACGUCGCAGCCCCUGUCAGAUUCUGGUGAAUCUGCGAAUUCUGCUGUAUAUCUC the value was 0.13. In the case of UGACUGGGGGCCACAGCUGAGGAGUUCACGUCGCAGCCCCCGUCAGAUUCUGGUGAAUCUGCGAAUUCUGCUGAAUAUCUC, the self-cleavage stood at 0.7. Turning to UGACGGGGGGCCACAGCAGAAGCGUACACGUCGCAGCCCCUGUCAGAUUCUGGUGAAUCUGCGAAUCCUGCUGUAUAUCGC, the self-cleavage was found to be 0.69. Take UGACAGGGGGCCUCAGCAGAAGCGUUCACGUCGCAGCCCCUGUCAGAUUCUGGUGAAUCUGCGAAUUCCGCUGUAUUUCUC: the self-cleavage was found to be 0.55. For UGUCAGGGGGCCACAGCAGAAGCGUUCACGUCGCAGCCCCUGUCAGAUUCUGGUGAAUCUGCGAAUUCUGCUGAAUACCUC the value was 1.25.

As for UGACGGGGGGCCACGGCAGAAGCCUUCACGUCGCAGCCCCGGUCAGAUUCUGGUGAAUCUGCGAAUUCUGCUGUAUAUCUC, the self-cleavage worked out at 0.09. As for UGACGGGGGGCCACAGCAGAAGCGUUCACGUCGCAGCCCCUGUCAGAUUCUGGUGAAUCUGCGAUUUCUGCUGUAUAUCUC, the self-cleavage amounted to 0.19. For UGACAGGGGGCCUCAGCAGAAGCGUUCACGUCGCAGCCCCUGUCAGAUUCUGGUGGAUCUGCGAAUUCUGCCGUAUAUCUC the value was 0.5; for UGACAGGGGGCCCCAGCAGAAGCGUUCACGUCGCAGCCCCUGUCAGAUUCUGGUGCAUCUGCGAAUUCUGCUGUAUAUCUC, 0.42. For UGACGGGGGGCCACGGCAGAAGCGUUCACGACGCAGCCCCUGAUAGAUUCUGGUGAAUCUGCGGAUUCUGCUGUAUAUCUC the value was 0.08; for UGACAGGGGGCCGCAGCAGAGGCGCUCACGUCGCAGCCCCUGUCUGAUUCCGGUGAAUCUGCGAAUUCUGCUGUACAUCUC, 0.11; for UGACGGGGGGCCACAGCAGAAGCGUUCACGUCGCAGCCCCUGUCGGAUUCAGGUGAAUCUGCGGAUUCUGCCGUAUAUCUC, 0.3. Turning to UGACGGGGGGCCACAGCGGAAGCGUUCACGUCGCAGCCCCCGUCAGAAUCUGGUGAGACUGCGAAUUCUGCUGUAUAUCUC, the self-cleavage came to 0.48. With UGACUGGGGGCCACAGCGGAAGCGUUCACGUCGCAGCCCCUGUCAGAUUCUGGUGAAUCUGCGGAUUCUGCUGUAUAUCUC the figure was 0.51; with UGACGGGGGGCCACAGCAGAAGCGUUCACGUCGCAGCCCCUGUCAGAUUCAGGUGAGUCUGCGGAUUCUGCUGUAUAUCUC, 0.29; with UGACAGGGGGCCGCAGCAGAAGCGUUCACGUCGCGGCCCCUGUCAGAUUCUGGUGAAUCUGCGAAUCCUGCUGUAUAUCUC, 0.05. Take UGACAGGGGGCCUCAGCAGAAGCGUUCACGUCGCAGCCCCUGUCAGAUUCUGCUGAAUCUGCGAAUUCUGCCAUAUAUCUC: the self-cleavage is 0.69. For the variant UGACAGGGGGCCUCAGCAGAAGCGUUCACGUCGCAGCCCCUGUCAGAUUCUGGUGAACCCGCGAAUUCUGCUGUAUAUCUC, the self-cleavage was determined as 0.18. As to UGACUGGGGGCCACAGCAGAAGCGUUCGCGUCGCAGCCCCUGUCAGAUUCUGGUGAAUCUGCGAAUUCUGCUGUAUAUCUC, the self-cleavage was determined as 0.63.

In the case of UGACAGGGGGCCGCAGCAGAAGCGUUCGCGUCGCAGGCCCUGUCAGAUUCUGGUGUAUAUGCGAAUUCUGCUGUAUAUCUC, the self-cleavage turned out to be 0.07. In the case of UGACUGGGGGCCACAGCAGAAGCGUUCACGUCGCAGCCCCUGUCAGAUUCUGGUGAGUCUGCGAAUUCUGCUGUGUAUCUC, the self-cleavage is 0.37.
